Data taken from PubChem BioAssay AID330 (DTP/NCI, 2004).
“And” between values parts separate entries of the source, which are not always exact repeats. Identical values can stand only once. Further values from the same series stand in other lists. Inconclusive results and toxic doses are left out.

System: P388 leukemia ip, CD2F1 mice, survival T/C
Assay: NCI In Vivo Anticancer Drug Screen. Data for tumor model P388 Leukemia (intraperitoneal) in CD2F1 (CDF1) mice
Details: endpoint: median survival time, higher = longer survival
How it was run: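 Mice carrying the transplanted tumor received test compound or vehicle. Survival was recorded in each group, and the value is the treated-group measurement divided by that of the vehicle-treated control group.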

## COc1cccc2c1C(=O)c1c(O)c3c(c(O)c1C2=O)C[C@@](O)(C(=O)CO)C[C@@H]3OC1CC(N)C(O)C(C)O1 (some centres not stated)
dose: 0.1 mg/kg/injection, schedule: Q01DX009 (ip), vehicle: water
  T/C: 185 % of control
dose: 0.1 mg/kg/injection, schedule: Q04DX003 (ip), vehicle: saline
  T/C: 101 % of control
dose: 0.12 mg/kg/injection, schedule: Q01DX009 (ip), vehicle: water
  T/C: 180 % of control
dose: 0.2 mg/kg/injection, schedule: Q01DX009 (ip), vehicle: water
  T/C: 182 % of control
dose: 0.23 mg/kg/injection, schedule: Q01DX009 (ip), vehicle: saline
  T/C: 168 % of control
dose: 0.3 mg/kg/injection, schedule: Q04DX003 (ip), vehicle: saline
  T/C: 104 % of control
dose: 0.38 mg/kg/injection, schedule: Q01DX009 (ip), vehicle: saline
  T/C: 171 % of control
dose: 0.39 mg/kg/injection, schedule: Q01DX009 (ip), vehicle: water
  T/C: 204 % of control
dose: 0.4 mg/kg/injection, schedule: Q01DX009 (ip), vehicle: water
  T/C: 180 % of control
dose: 0.43 mg/kg/injection, schedule: Q01DX009 (ip), vehicle: saline
  T/C: 172 % of control and 166 % of control
dose: 0.44 mg/kg/injection, schedule: Q04DX003 (ip), vehicle: water
  T/C: 165 % of control
dose: 0.5 mg/kg/injection, schedule: Q01DX005 (ip), vehicle: water
  T/C: 164 % of control and 166 % of control and 181 % of control
dose: 0.5 mg/kg/injection, schedule: Q04DX003 (ip), vehicle: saline
  T/C: 110 % of control
dose: 0.52 mg/kg/injection, schedule: Q01DX009 (ip), vehicle: saline
  T/C: 202 % of control
dose: 0.63 mg/kg/injection, schedule: Q04DX003 (ip), vehicle: water
  T/C: 108 % of control and 113 % of control
dose: 0.66 mg/kg/injection, schedule: Q04DX003 (ip), vehicle: saline
  T/C: 172 % of control
dose: 0.66 mg/kg/injection, schedule: Q04DX003 (ip), vehicle: water
  T/C: 182 % of control
dose: 0.72 mg/kg/injection, schedule: Q01DX009 (ip), vehicle: saline
  T/C: 169 % of control and 191 % of control
dose: 0.75 mg/kg/injection, schedule: Q01DX009 (ip), vehicle: saline
  T/C: 205 % of control
dose: 0.78 mg/kg/injection, schedule: Q01DX009 (ip), vehicle: water
  T/C: 201 % of control
dose: 0.8 mg/kg/injection, schedule: Q01DX009 (ip), vehicle: water
  T/C: 162 % of control
dose: 0.8 mg/kg/injection, schedule: Q04DX003 (ip), vehicle: saline
  T/C: 164 % of control
dose: 0.86 mg/kg/injection, schedule: Q01DX009 (ip), vehicle: saline
  T/C: 209 % of control
dose: 1.0 mg/kg/injection, schedule: Q01DX005 (ip), vehicle: water
  T/C: 188 % of control and 194 % of control (2×)
dose: 1.0 mg/kg/injection, schedule: Q02DX002 (ip), vehicle: saline
  T/C: 170 % of control
dose: 1.0 mg/kg/injection, schedule: Q04DX003 (ip), vehicle: saline
  T/C: 110 % of control
dose: 1.12 mg/kg/injection, schedule: Q04DX002 (ip), vehicle: saline
  T/C: 176 % of control
dose: 1.2 mg/kg/injection, schedule: Q01DX009 (ip), vehicle: saline
  T/C: 178 % of control and 248 % of control
dose: 1.25 mg/kg/injection, schedule: Q01DX001 (ip), vehicle: water
  T/C: 180 % of control
dose: 1.25 mg/kg/injection, schedule: Q04DX003 (ip), vehicle: saline
  T/C: 190 % of control
dose: 1.25 mg/kg/injection, schedule: Q04DX003 (ip), vehicle: water
  T/C: 119 % of control and 123 % of control
dose: 1.3 mg/kg/injection, schedule: Q01DX001 (ip), vehicle: water
  T/C: 174 % of control
dose: 1.3 mg/kg/injection, schedule: Q01DX004 (ip), vehicle: saline
  T/C: 173 % of control
dose: 1.44 mg/kg/injection, schedule: Q01DX009 (ip), vehicle: saline
  T/C: 248 % of control
dose: 1.5 mg/kg/injection, schedule: Q01DX009 (ip), vehicle: saline
  T/C: 320 % of control
dose: 1.56 mg/kg/injection, schedule: Q01DX009 (ip), vehicle: water
  T/C: 103 % of control
dose: 1.57 mg/kg/injection, schedule: Q01DX009 (ip), vehicle: water
  T/C: 242 % of control
dose: 1.6 mg/kg/injection, schedule: Q01DX004 (ip), vehicle: saline
  T/C: 205 % of control
dose: 1.6 mg/kg/injection, schedule: Q01DX009 (ip), vehicle: water
  T/C: 225 % of control
dose: 1.6 mg/kg/injection, schedule: Q04DX003 (ip), vehicle: saline
  T/C: 199 % of control
dose: 1.6 mg/kg/injection, schedule: Q04DX003 (ip), vehicle: water
  T/C: 167 % of control
dose: 1.62 mg/kg/injection, schedule: Q04DX002 (ip), vehicle: saline
  T/C: 169 % of control and 189 % of control
dose: 1.62 mg/kg/injection, schedule: Q04DX003 (ip), vehicle: water
  T/C: 177 % of control
dose: 1.73 mg/kg/injection, schedule: Q04DX002 (ip), vehicle: saline
  T/C: 176 % of control and 178 % of control
dose: 1.8 mg/kg/injection, schedule: Q01DX001 (ip), vehicle: water
  T/C: 174 % of control and 167 % of control
dose: 1.8 mg/kg/injection, schedule: Q04DX003 (ip), vehicle: saline
  T/C: 190 % of control
dose: 2.0 mg/kg/injection, schedule: Q01DX005 (ip), vehicle: saline
  T/C: 169 % of control
dose: 2.0 mg/kg/injection, schedule: Q01DX005 (ip), vehicle: water
  T/C: 174 % of control and 221 % of control and 232 % of control
dose: 2.0 mg/kg/injection, schedule: Q01DX009 (ip), vehicle: saline
  T/C: 192 % of control
dose: 2.0 mg/kg/injection, schedule: Q02DX002 (ip), vehicle: saline
  T/C: 188 % of control
dose: 2.0 mg/kg/injection, schedule: Q04DX003 (ip), vehicle: saline
  T/C: 115 % of control
dose: 2.1 mg/kg/injection, schedule: Q01DX004 (ip), vehicle: saline
  T/C: 196 % of control
dose: 2.16 mg/kg/injection, schedule: Q04DX002 (ip), vehicle: saline
  T/C: 175 % of control
dose: 2.16 mg/kg/injection, schedule: Q04DX002 (ip), vehicle: water
  T/C: 184 % of control
dose: 2.25 mg/kg/injection, schedule: Q04DX003 (ip), vehicle: saline
  T/C: 174 % of control
dose: 2.4 mg/kg/injection, schedule: Q01DX001 (ip), vehicle: water
  T/C: 174 % of control and 201 % of control
dose: 2.4 mg/kg/injection, schedule: Q01DX009 (ip), vehicle: saline
  T/C: 252 % of control
dose: 2.4 mg/kg/injection, schedule: Q04DX003 (ip), vehicle: saline
  T/C: 186 % of control
dose: 2.4 mg/kg/injection, schedule: Q04DX003 (ip), vehicle: water
  T/C: 191 % of control
dose: 2.5 mg/kg/injection, schedule: Q01DX001 (ip), vehicle: water
  T/C: 160 % of control
dose: 2.5 mg/kg/injection, schedule: Q04DX003 (ip), vehicle: saline
  T/C: 192 % of control
dose: 2.5 mg/kg/injection, schedule: Q04DX003 (ip), vehicle: water
  T/C: 122 % of control
dose: 2.59 mg/kg/injection, schedule: Q01DX001 (ip), vehicle: saline
  T/C: 178 % of control
dose: 2.6 mg/kg/injection, schedule: Q01DX004 (ip), vehicle: saline
  T/C: 164 % of control and 198 % of control
dose: 2.7 mg/kg/injection, schedule: Q04DX002 (ip), vehicle: saline
  T/C: 176 % of control and 179 % of control and 196 % of control
dose: 2.7 mg/kg/injection, schedule: Q04DX003 (ip), vehicle: water
  T/C: 210 % of control
dose: 2.88 mg/kg/injection, schedule: Q04DX002 (ip), vehicle: saline
  T/C: 181 % of control and 195 % of control
